According to the supplement of paper PMC3334620:
The full ranking holds about 33,000 sequences; the median of “E-score (-0.5 to 0.5)” is about -0.054, and the highest 2% start at about 0.39. Some of the results follow.

These sequences were tested against Ylr278c (UniProt Q05854) (assay: PBM E-score (8-mer binding enrichment) (E-score (-0.5 to 0.5)); higher = stronger / more preferred TF binding; most listed sequences are background and not binding sites). Conditions: protein concentration: 200 nM; construct: GST-DNA-binding domain.
Procedure, shortened: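 GST-tagged yeast TFs (full-length or DNA-binding domain) were made by PURExpress in vitro transcription/translation and applied at about 100-200 nM to universal all-10-mer Agilent arrays. The arrays were made double-stranded by primer extension, on fresh or once-stripped slides. Bound protein was detected with fluorescent anti-GST, and scans were normalised with masliner. Each ungapped eight-base word, pooled with its reverse complement, received an E-score (modified Wilcoxon-Mann-Whitney statistic) from the Universal PBM Analysis Suite.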

Sequence | PBM E-score
CTGCTGCA | -0.153
CGCAGAAC | 0.00027
CATTTCGG | 0.226
ACGGATAA | 0.293
CCACTTCC | 0.0941
AGTTTGAC | -0.0378
ATCAAGAC | -0.00757
AGTCCTGG | -0.203
AACTTTGA | -0.129
AGGAAAGA | -0.261
ACCCGTCG | -0.0266
CGCATCTC | 0.124
AGCACTCG | 0.0828
CAAAGATG | -0.0597
TCCTCGCA | 0.0362
CCATCCTC | 0.145
CCGTCCAG | 0.0496
TAACGCAA | -0.0984
CCGCGTAG | 0.166
GCTAAGCC | 0.0306
GTGCCATA | -0.319
GATGATGC | -0.14
GGATACTA | 0.0919
ACACAGGC | -0.209
GAACGTTA | 0.0074

Sequence | PBM E-score
AAGAGTGG | -0.121
GATCCCCC | -0.0852
GGAACCAA | 0.0593
CACGGTAA | 0.106
GGTCTAGA | -0.27
CATTACGG | -0.00182
GCGCATAC | 0.0687
CTCCCCAA | 0.108
AATTATTA | 0.0546
CTCCTCAA | -0.0756
CGCTAGCC | -0.0385
GTTCCCAA | -0.109
CCGATATA | 0.304
ACGTCTAA | -0.136
CCTTTTCG | 0.0881
ATCTAAAG | -0.122
CCGTTCAG | 0.132
AGTTGCCG | 0.171
CTTAGGCC | -0.018
CGCAACAC | 0.111
GCGCAACC | 0.0421
CACATGTA | -0.11
CCCAGTTA | -0.124
ACCGCCCG | 0.313
CTGTATTA | -0.141

Sequence | PBM E-score
AGTCTCAT | -0.0897
CGTTGGTA | 0.126
GACTTTGA | -0.12
CCCAGTGA | -0.162
ATAATATC | -0.0834
AAGTCGGG | 0.16
CTCGACAC | -0.131
CTAGGGAA | -0.0217
CTATTGGA | 0.00078
CCGTAGGC | 0.0321
GACAGCCC | 0.0122
ACATGCAC | -0.183
GGATAGTA | 0.106
CTGATTAC | -0.0571
GTCACCGA | -0.0039
TATTAGCA | -0.0864
GGTCGATA | -0.0601
CGACTCCA | -0.0167
GAGATGAC | -0.0626
CCCCATCG | 0.152
CGGACATA | 0.454
ATACGGCC | 0.0231
GCCAAATA | -0.0295
GTGGTGCA | -0.0509
GCCGATCC | 0.278

Sequence | PBM E-score
CCATCTGC | 0.0533
AACCAGAC | -0.332
AGTGCAAC | -0.155
AAACGCAA | 0.0307
GTGCTCGA | 0.0346
GTGTGGTA | -0.165
CGCAATAC | 0.0448
GAGCATCC | 0.0825
CTACGCAA | -0.215
CCTAGCAG | -0.268
GTTGGTTA | -0.0961
AGTCTTAT | -0.0837
AGTTTACG | -0.0241
AGTGATGG | -0.275
CACCTGGG | -0.248
AGCCACGA | -0.131
TAGAAAAA | -0.0496
AACTATGA | -0.193
GAACGTCC | 0.133
CCATCGAC | -0.14
ATGGTAAC | -0.08
AGGATAAC | -0.309
ATCGATAC | -0.015
AGGCCATA | -0.0972
ACTTAGTG | -0.185

Sequence | PBM E-score
GCCACGTA | -0.289
GGGAAATA | 0.0851
CTATCTGC | -0.0296
CCCGCAGC | 0.264
CAACGGCA | -0.0393
GGCAGTTA | -0.0735
GATCGCAA | -0.0462
CATGCTTC | -0.181
CGCGGTCC | 0.366
AAATGAAC | -0.192
GACAGATA | -0.0608
GTCATTAA | 0.102
CAGCTACG | -0.338
GGCCAGAA | -0.0354
CGCTTCGA | 0.0323
CAGACGAA | 0.149
CGAGCAAA | 0.093
AAACCGCG | 0.273
CCGAGATA | 0.243
ACAACAAA | -0.133
CCTCGGCA | 0.25
CTCTGGAA | -0.22
ACTACTTA | -0.0798
TCCCGGGA | 0.398
AAGCACCG | 0.04

Sequence | PBM E-score
ATAGGGAT | -0.0391
CACTGGAC | -0.0735
GCGCCTGA | 0.00147
GCGAGGAC | -0.116
CGACGGAA | 0.339
GTCACAAC | -0.0361
AGTTCATA | -0.0477
CTTGCTTC | -0.176
CCCCTAGA | -0.272
AGAAATCA | 0.0265
CCACACAC | 0.114
AACGCGCG | 0.22
CTCCGGAC | 0.477
ACCGAGGC | -0.144
GACGGTCA | -0.138
GGTCTCGA | 0.0953
ATGGAAAT | 0.0565
GGCAGCGA | 0.0771
GGGATACA | 0.0595
ATTCGATG | -0.216
ATCGCTCA | -0.217
CATAGGTA | -0.273
ATTTGAGC | -0.102
ACAGCCCA | -0.2
CGATGCAA | 0.183

Sequence | PBM E-score
CCGACCGG | 0.383
ATGACATA | -0.174
AGTGTGCA | -0.11
CAAGACGA | -0.0476
ACGTTGAT | -0.207
CTGGCGGC | 0.207
GTAGCGTA | -0.0749
ATACTTTG | -0.136
GGTCGTGA | -0.19
GAGAACCC | -0.0282
TCAATGGA | -0.123
CTCTTATA | 0.0631
AGATGCAG | -0.262
AATTATCT | 0.0914
CAGTGCAC | -0.0223
ACCTGACC | -0.149
AAAAACAC | -0.0909
GACCCCAC | 0.127
AAGGCTGA | -0.152
AAATTGTG | -0.26
AAGAACAC | 0.0131
CTGGTTTC | 0.0107
ACCGAACT | 0.0468
AGCACAAC | 0.175
CAGCGCAG | 0.00799

Sequence | PBM E-score
CACGCTGA | -0.189
CAAGACCC | -0.109
AAGACTCG | -0.0276
CCGCGGCG | 0.364
CCAGTGAA | -0.0717
GACGCCTA | -0.172
TCCCCAAA | -0.0318
CGATTGTC | 0.12
CAAAAGCC | 0.18
CTGATCGA | -0.198
AATACAGC | -0.0142
ACTTCATC | -0.103
GAAGGTAC | -0.235
AGGTCGTG | -0.281
AGGCCACA | -0.282
AGGTAATA | 0.0169
GTGGCCCA | -0.196
ATCCCTCG | 0.208
ATTCTTCG | -0.00036
GAGGCCAC | -0.193
CGTGATAA | -0.0572
AGTTCACC | 0.126
GTTTGGTA | 0.0237
CCTCACAG | -0.134
AAAGCCTT | -0.162

Sequence | PBM E-score
CTGCATAA | -0.0728
CAATGATA | -0.0669
GATGTCGC | -0.0629
GATTGGGA | -0.106
CTCATACC | -0.0662
CGCTAGTA | 0.17
CTGGTGGC | -0.164
AATCTCAG | -0.103
GCTTCACA | -0.115
ACTTCTTG | -0.065
ATTATGAA | -0.00699
AGTCGCAT | -0.199
GCTCAAAC | 0.129
GCGAGCAC | -0.14
GTGTTCGA | -0.0363
CGTTTTCA | 0.0373
CCGCCCCG | 0.42
ATAAAATA | -0.0515
AAACGTCC | -0.0644
AAGTAGAT | -0.0116
ACGATGCG | -0.123
CGCTCACG | 0.207
AACGTACG | -0.145
ACTGCCTG | -0.243
ACGTGAAT | -0.147

Sequence | PBM E-score
CGTCTACC | 0.0196
GCGGCTAC | 0.135
AGGTGGAC | -0.19
GTTCCGCA | 0.289
GAACGGTA | -0.0663
CCAGTACA | -0.227
AGGGGTTC | 0.0104
AATTGGCA | -0.161
ATCTTGAC | -0.292
GGTCCAGA | -0.112
CGTGAATC | -0.0386
CCGCGCAC | 0.22
AATCAAAA | 0.109
CCCGCCGG | 0.384
CAATTAAC | -0.0354
ACGTAGTC | -0.164
GAGGCAGA | -0.207
ACGCAGCC | -0.0587
AAATTAGT | -0.076
AAAAGCCG | 0.388
CCAGTGCC | -0.167
ATTTTGCA | -0.0861
GACCGGCC | 0.291
AGCCGTAT | -0.0908
CGGGAAAA | 0.259

Sequence | PBM E-score
CCTATAAA | -0.0348
GCCGGCGA | 0.385
GACAACAA | -0.164
AGAGATAT | -0.256
GAGTGCAC | 0.0372
AATTTTCC | 0.358
AGTGAAGA | -0.14
AGCGGAAG | 0.305
AACATTTA | -0.0141
AGCCATGA | -0.103
GGGAGCCC | -0.059
CTGTTGTA | -0.0433
AAAGAACA | -0.126
TAACTTCA | -0.198
CAGATTAG | -0.223
AAGAGGCC | 0.137
AGCGCCCT | -0.00488
GTTCGTGA | -0.177
CAAAGTGG | -0.285
AGTACGTA | -0.124
GGTAGACC | -0.0527
GTGACCGA | 0.101
GACCGACC | 0.0515
ACGAAGCG | -0.162
CAGGTCCA | -0.226

Sequence | PBM E-score
CTTGCGCC | -0.105
CACCACTG | -0.335
ATCGACGA | 0.0209
CCGACTAC | 0.295
CTAGTGAA | -0.112
CCAGGGAC | -0.188
ATGTCTTC | -0.153
ACCCAAAC | 0.0213
ATCCCCAC | -0.00192
ATTCTTTG | -0.159
ATTAAGGA | -0.0299
AGCTGCGA | -0.0578
GCCATTCA | 0.12
GCTGATGA | -0.217
GACCGGAC | 0.383
CTCTAATC | -0.0678
CACGAGTC | -0.202
ACCTTCGC | 0.00825
CAGCGGAG | 0.408
CAACAGCA | -0.0177
CAAACGAG | -0.0823
ATATTGAA | -0.00985
AATCATAG | -0.04
AACATTCG | 0.0713
AATTACCG | 0.275

Sequence | PBM E-score
GTTCAGAA | -0.175
AACAAGAA | -0.0843
AGTGGATG | -0.158
ACAGACCC | -0.052
TACCTGAA | -0.23
AAAGCCCG | 0.338
AACTATCA | -0.111
CTGCGCGC | 0.138
GTATTACA | -0.0417
CGGTGCCA | 0.0473
AAAGGTGG | -0.126
ACGGCCTA | 0.106
AGATGGCA | -0.00669
ACCTGAGC | -0.197
ACGATTAA | -0.0627
ACTCAGAT | -0.182
TCCGCGCA | 0.374
AGCGGTCA | 0.0962
TCTATTCA | -0.218
GGCTGACA | 0.0842
CATTCGGC | 0.312
ACGAGAGG | -0.16
TACTTCTA | -0.212
AATACAGA | -0.158
CGTACATA | -0.115

Sequence | PBM E-score
ACCCGACT | 0.105
GCGAATCC | 0.111
AAGCCGAG | 0.226
GTTTTGTA | -0.0964
GACGCGAC | -0.133
CTCCCTTC | -0.275
CTCTTGAC | -0.177
AACGGGTC | -0.0645
AGCAAGAT | -0.0184
CTAATCCA | -0.135
GAACTATC | -0.121
CAGAACCG | -0.00913
TAGCCCAA | -0.13
CAACAAAC | 0.00596
GTGCACAC | -0.231
ACACTCTG | -0.112
CCGCCACC | 0.198
ACTCTGCG | 0.00898
ATAGCGCG | 0.0396
